Assay results: ChEMBL document CHEMBL1201862, “PubChem BioAssay data set” (2004)
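96-well plates; 48 h exposure; 5 concentrations. Endpoints by linear interpolation between flanking doses. Not reached: highest tested concentration assigned. Abbreviation: GI50, concentration required for 50% inhibition of growth.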 Active and inactive are the calls of the source. Rule as the data show it: active = GI50 up to about 1.1 µM and inactive = higher. Peptide text beside a SMILES is read from it.

Each compound was assayed on NCI-H322M (assay: NCI-60 cell line screen, 48 h).

SMILES | GI50
CN(/N=C\c1ccnc2ccccc12)c1ccc([N+](=O)[O-])cc1 | inactive: > 100 µM
COc1ccc2[nH]c3c(c2c1)CCc1ccccc1-3 | inactive: > 100 µM
CC(C)N1CCN(c2ccncc2S(=O)(=O)N2CCCCC2)CC1 | inactive: > 100 µM
Cc1ccc(C)c2c1CC(Cc1ccccc1C(=O)O)C2=O (stereo not drawn) | inactive: > 100 µM
O=C(CNc1ccc2c(=S)c3ccccc3[nH]c2c1)Nc1ccccc1-c1ccccc1NC(=O)CNc1ccc2c(=S)c3ccccc3[nH]c2c1 | inactive: 22 µM
Cc1cc2c(cc1Cl)S(=O)(=O)OC(c1ccc([N+](=O)[O-])cc1)=N2 | inactive: > 100 µM
N/C(=N\N=C\c1nc2ccccc2o1)c1cnccn1 | inactive: > 100 µM
CCN(CC)C1Oc2cc3c(cc2C(c2cc(OC)c(O)c(OC)c2)C1C)OCO3 (stereo not drawn) | inactive: 24.8 µM
C=C1C(C)C2C(Cc3ccccc3)NC(=O)C23OC(=O)/C=C\CC(=O)CCC(C)C/C=C/C3C1O (stereo not drawn) | inactive: 10.2 µM
O=C(/C=C/c1cc(Cl)cc(Cl)c1O)c1cccc(O)c1 | inactive: 43.8 µM
CN(C)CCCn1nc(N)c2nc3cc(Cl)ccc3nc21 | inactive: 24.1 µM
CC1(C)OC[C@@H](O)[C@H](C#N)CO1 | inactive: > 100 µM
CC(=S)NC=C(C(N)=O)C(N)=O | inactive: > 100 µM
O=C1O/C(=C\c2ccc(O)cc2)C(c2ccc(O)c(Cl)c2)=C1Br | inactive: 16.2 µM
COc1ccc2c(c1)-c1nn(CCN(C)C)c3ccc(C(=O)NCCCN(C)CCCNC(=O)c4ccc5c6c(c7cc(OC)ccc7nc46)NN5CCN(C)C)c(c13)N2 | active: < 0.01 µM
N=C(N)N/N=C/c1c(-c2ccc(Cl)cc2)nc2sc(Cl)cn12 | inactive: 1.63 µM
Cc1ccc2c(c1)CC1(C2=O)[C@H](c2ccccc2)C2C(=O)c3ccc(C)cc3C2[C@H]1c1ccccc1 (stereo partly drawn) | inactive: > 100 µM
N#CC1=C(Cl)NC(Cl)=C(C#N)C1c1ccc(Cl)cc1 | inactive: 35.7 µM
COc1cc([C@@H]2c3cc4c(cc3[C@@H](c3c(O)cc(O)c5c3O[C@H](c3ccc(O)c(O)c3)[C@H](OC(=O)c3cc(O)c(O)c(O)c3)C5)[C@H]3COC(=O)[C@H]23)OCO4)cc(OC)c1OC | inactive: 36.2 µM
Cc1ccc(C2(N3CCOCC3)OC(C)(C)c3cccc4cccc2c34)cc1 (stereo not drawn) | inactive: 16.8 µM
Oc1c2ccccc2c2c3c(cccc13)N=N2 [SP-600125] | inactive: 24.9 µM

SMILES | GI50
NS(=O)(=O)c1ccc(NCc2nc3ccccc3[nH]2)cc1 | inactive: > 100 µM
COc1ccc(/C=C2\Sc3nnc(-c4ccccc4)n3N=C2c2cc(F)c(Cl)cc2Cl)cc1OC | inactive: 79.1 µM
Cc1cc(C)nc(NS(=O)(=O)c2ccc(NC(=O)c3cccc4c(Nc5ccc(S(=O)(=O)Nc6nc(C)cc(C)n6)cc5)c5ccc(Cl)cc5nc34)cc2)n1 | inactive: 50.8 µM
O=C1C=C[C@@H](COC2OC(CO)C(O)C(O)C2O)O1 (stereo partly drawn) | inactive: 15.3 µM
O=C(O)C(Cc1ccc(O)cn1)NC(=O)C(F)(F)F (stereo not drawn) | inactive: > 100 µM
Cc1ccc(NC(=O)CCc2nnc3s/c(=C\C=C\c4ccccc4)c(=O)n23)cc1 | inactive: > 71.6 µM
CC1(C)CCc2c(ccc(C(=O)/C=C/c3ccc(O)cc3)c2O)O1 [DORSMANNIN A] | inactive: 9.55 µM
Nc1ccccc1C#CC(=O)c1cccc(C(F)(F)F)c1 | inactive: 16.3 µM
CCCC#CCOC(=O)c1cc([N+](=O)[O-])cc([N+](=O)[O-])c1 | inactive: 45.2 µM
Cc1cc(C)nc(NS(=O)(=O)c2ccc(Nc3c4ccccc4nc4c(C(=O)NCCO)cccc34)cc2)n1 | inactive: 10 µM
N#CC(C#N)=Cc1ccc(CP(=O)(O)O)cc1 | inactive: > 100 µM
COc1ccc2c(c1)c(=O)c1c(NCCCN(C)C)ccc3ncn2c31 | inactive: 1.6 µM
O=C(O)c1c2c(cc3c(=O)c4ccccc4[nH]c13)CCCC2 | inactive: > 100 µM
CC/C(=C/OC)P1(=O)OC(C)(C)CN1C(C)(C)C (stereo not drawn) | inactive: > 100 µM
CCOC(=O)C1=C(OC(OCC)C(C)[Se]c2ccccc2)CCC1 (stereo not drawn) | inactive: > 100 µM
O=c1[nH]nc(-c2ccccc2)n1-n1cnnc1 | inactive: > 100 µM
C=C1C(=O)OC2/C=C(\C)C(O)CC(O)C(C)(O)CC(OC(=O)/C(C)=C/C)C12 (stereo not drawn) | inactive: 50.7 µM
COc1cc(C(C)=O)cc(C(=O)N(C(C)C)C(C)C)c1[Si](C)(C)C | inactive: > 100 µM
COC1/C=C/C(C)C(C(C)C(OC)C(C)CCC(=O)C(C)C(C/C=C/N(C)C=O)OC)OC(=O)/C=C/C=C(\C)CC(OC)CC2=CC(=O)O[C@H](C2)C(C)C(OC)CC(OC)/C=C/C(C)C(OC)C1 (stereo partly drawn) | active: 0.0121 µM
CC(O)/C=C/C(CCC(C)CO)C(C)C (stereo not drawn) | inactive: > 100 µM
COC1=CC(=O)C(Br)=CC1=O | inactive: > 100 µM

SMILES | GI50
Cn1c(N=[N+]=[N-])cc(=O)n(C)c1=O | inactive: > 100 µM
CCCCCCCCCCCC(=O)OCC(O)CO (stereo not drawn) [GLYCEROL MONOLAURATE] | inactive: > 100 µM
O=C(Cc1nc2ccc(C(=O)c3ccccc3)cc2nc1O)C(=O)Nc1ccc(Br)cc1 | inactive: > 100 µM
Cc1c2cc[n+](C)cc2c(C)c2c1sc1ccccc12 | active: 1.12 µM
O=c1cc(O)c2c(O)cc(O)cc2o1 | inactive: > 100 µM
NCCSSCc1ccccc1CSSCCN | inactive: > 100 µM
O=C(O)C1CCCCN1C(=O)Cc1c[nH]c2ccccc12 (stereo not drawn) | inactive: > 100 µM
Cc1ccc(C)c(NC(=O)CC/C(=N\NC(=O)C(=O)NN)C(C)C(=O)c2ccc(O)cc2)c1 (stereo not drawn) | inactive: > 100 µM
Cn1c(=O)c2sc3cc4c(cc3c2c2ccccc21)sc1c(=O)n(C)c2ccccc2c14 | inactive: > 100 µM
COc1ccc(CNC(=O)[C@@H]2CCCN2C(=O)[C@@H]2CCCN2C(=O)[C@H](C(C)C)N(C)C(=O)[C@@H](NC(=O)[C@H](C(C)C)N(Cc2ccccc2)Cc2ccccc2)C(C)C)cc1OC (HELM PEPTIDE1{[CC(C)[C@@H](C(=O)[*:2])N(Cc1ccccc1)Cc1ccccc1].V.[meV].P.P.[COc1ccc(CN[*:1])cc1OC]}$$$$V2.0) | inactive: 15.6 µM
O=C1Nc2ccccc2/C1=N/NC(=S)Nc1ccc([N+](=O)[O-])cc1 | inactive: 12.4 µM
O=C1C2=C(CC3=C(C2)CS(=O)(=O)C3)C(=O)C2=C1CC1=C(C2)CS(=O)(=O)C1 | inactive: 33.6 µM
COc1cc(C(=O)N(C)N(C)C)cc(OC)c1OC | inactive: > 10 µM
CC(=O)c1c(SCCN2CCCCCC2)n(-c2ccccc2)c(=S)n(-c2ccccc2)c1=O | inactive: 26.8 µM
COc1ccccc1/C=C/c1nc2ccccc2o1 | inactive: > 10 µM
CCCCCC/C=C1\CCC(CN2CCCC2)C1=O (stereo not drawn) | inactive: 19.7 µM
Cc1cc(O)nc(NN2C(Cl)C(=O)C2c2cccc(Cl)c2)n1 (stereo not drawn) | inactive: 29.3 µM
O=NN1CCN=C1c1ccc([N+](=O)[O-])cc1 | inactive: > 100 µM
CC(=O)Nc1nnc(S(=O)(=O)NC(=S)Nc2ccc(Cl)cc2)s1 | inactive: > 100 µM
O=C1/C(=C/c2cccc(Br)c2)CCc2ccccc21 | inactive: 17.7 µM
N#COc1ccc(Oc2ccccc2)cc1 | inactive: > 100 µM
